In PMC12820563, “FoxP3 forms a head-to-head dimer in vivo and stabilizes its multimerization on adjacent microsatellites”:
The list shows a part of the results.

What follows are sequences tested against T1, MBP-FoxP1dN (Mus musculus, UniProt P58462 326-579) (assay: PD-seq (MBP pull-down with sequencing); 20 mM Tris-HCl pH 7.5, 100 mM NaCl, 1.5 mM MgCl2, 0.4 uM protein, 0.1 uM dsDNA library, 30 min, room temperature, amylose pull-down; high values mean tight binding). Conditions: protein: recombinant; tags: His6-MBP; chain copies: 2; dsDNA, one strand shown.
T1 sequence: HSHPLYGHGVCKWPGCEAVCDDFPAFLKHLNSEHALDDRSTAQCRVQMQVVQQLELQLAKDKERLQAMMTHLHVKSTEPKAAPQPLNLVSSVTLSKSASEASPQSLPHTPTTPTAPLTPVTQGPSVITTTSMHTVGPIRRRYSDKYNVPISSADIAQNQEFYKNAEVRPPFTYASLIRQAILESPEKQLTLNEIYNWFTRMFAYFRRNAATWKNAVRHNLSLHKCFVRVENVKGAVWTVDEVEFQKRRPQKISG
Procedure, shortened: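 A degenerate double-stranded DNA library, filled in with Klenow, was added at 0.1 µM to 0.4 µM His6-MBP-tagged mouse FoxP3 or FoxP1 fragment lacking the N-terminus, expressed in E. coli. Incubation lasted 30 min at room temperature in Tris pH 7.5 buffer with NaCl and MgCl2, after which complexes were collected on amylose resin, washed three times, digested with proteinase K to free the DNA, barcoded by PCR and sequenced by Illumina. Binding is the pooled-replicate reads-per-million enrichment of pull-down over input.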

Sequence	binding signal
GATGATTGTTCTCCCAGCTGATGAATTTTATGCGTCGAGTAAACAAATTTTCCTAATCTTTCTGTTCAAGCGCCATCTAC	1.12 RPM ratio (pull-down/input)
GATGATTGTTCTCCCAGCTGATGAATTGTATGATTCGAGTAAACAAATTTTCCTAATCTTTCTGTTCAAGCGCCATCTAC	1.1 RPM ratio (pull-down/input)
GATGATTGTTCTCCCAGCTGATGAATTCCGAAAGTCGAGTAAACAAATTTTCCTAATCTTTCTGTTCAAGCGCCATCTAC	0.842 RPM ratio (pull-down/input)
GATGATTGTTCTCCCAGCTGATGAATTCCACTTATCGAGTAAACAAATTTTCCTAATCTTTCTGTTCAAGCGCCATCTAC	0.973 RPM ratio (pull-down/input)
GATGATTGTTCTCCCAGCTGATGAATTGGTCTGGTCGAGTAAACAAATTTTCCTAATCTTTCTGTTCAAGCGCCATCTAC	0.807 RPM ratio (pull-down/input)
GATGATTGTTCTCCCAGCTGATGAATTGCGTTCATCGAGTAAACAAATTTTCCTAATCTTTCTGTTCAAGCGCCATCTAC	1.14 RPM ratio (pull-down/input)
GATGATTGTTCTCCCAGCTGATGAATTAGTTGCATCGAGTAAACAAATTTTCCTAATCTTTCTGTTCAAGCGCCATCTAC	1.65 RPM ratio (pull-down/input)
GATGATTGTTCTCCCAGCTGATGAATTTTCCTGATCGAGTAAACAAATTTTCCTAATCTTTCTGTTCAAGCGCCATCTAC	0.846 RPM ratio (pull-down/input)
GATGATTGTTCTCCCAGCTGATGAATTACATTCATCGAGTAAACAAATTTTCCTAATCTTTCTGTTCAAGCGCCATCTAC	1.17 RPM ratio (pull-down/input)
GATGATTGTTCTCCCAGCTGATGAATTATGCACTTCGAGTAAACAAATTTTCCTAATCTTTCTGTTCAAGCGCCATCTAC	1.12 RPM ratio (pull-down/input)
GATGATTGTTCTCCCAGCTGATGAATTCAATTGGTCGAGTAAACAAATTTTCCTAATCTTTCTGTTCAAGCGCCATCTAC	0.898 RPM ratio (pull-down/input)
GATGATTGTTCTCCCAGCTGATGAATTGCACACGTCGAGTAAACAAATTTTCCTAATCTTTCTGTTCAAGCGCCATCTAC	1.05 RPM ratio (pull-down/input)
GATGATTGTTCTCCCAGCTGATGAATTTCCAGGTTCGAGTAAACAAATTTTCCTAATCTTTCTGTTCAAGCGCCATCTAC	0.791 RPM ratio (pull-down/input)
GATGATTGTTCTCCCAGCTGATGAATTAGTCTAGTCGAGTAAACAAATTTTCCTAATCTTTCTGTTCAAGCGCCATCTAC	0.871 RPM ratio (pull-down/input)
GATGATTGTTCTCCCAGCTGATGAATTTGAGGGCTCGAGTAAACAAATTTTCCTAATCTTTCTGTTCAAGCGCCATCTAC	0.723 RPM ratio (pull-down/input)
GATGATTGTTCTCCCAGCTGATGAATTAACCTACTCGAGTAAACAAATTTTCCTAATCTTTCTGTTCAAGCGCCATCTAC	0.827 RPM ratio (pull-down/input)
GATGATTGTTCTCCCAGCTGATGAATTACAATCATCGAGTAAACAAATTTTCCTAATCTTTCTGTTCAAGCGCCATCTAC	1.57 RPM ratio (pull-down/input)
GATGATTGTTCTCCCAGCTGATGAATTCTGGACTTCGAGTAAACAAATTTTCCTAATCTTTCTGTTCAAGCGCCATCTAC	0.79 RPM ratio (pull-down/input)
GATGATTGTTCTCCCAGCTGATGAATTCCCCGAATCGAGTAAACAAATTTTCCTAATCTTTCTGTTCAAGCGCCATCTAC	0.9 RPM ratio (pull-down/input)
GATGATTGTTCTCCCAGCTGATGAATTCTACACATCGAGTAAACAAATTTTCCTAATCTTTCTGTTCAAGCGCCATCTAC	1.06 RPM ratio (pull-down/input)
GATGATTGTTCTCCCAGCTGATGAATTGGAAAGATCGAGTAAACAAATTTTCCTAATCTTTCTGTTCAAGCGCCATCTAC	0.916 RPM ratio (pull-down/input)

Sequence	binding signal
GATGATTGTTCTCCCAGCTGATGAATTTTGGATGTCGAGTAAACAAATTTTCCTAATCTTTCTGTTCAAGCGCCATCTAC	0.849 RPM ratio (pull-down/input)
GATGATTGTTCTCCCAGCTGATGAATTAGTCGGATCGAGTAAACAAATTTTCCTAATCTTTCTGTTCAAGCGCCATCTAC	0.912 RPM ratio (pull-down/input)
GATGATTGTTCTCCCAGCTGATGAATTTTGTGTGTCGAGTAAACAAATTTTCCTAATCTTTCTGTTCAAGCGCCATCTAC	1.48 RPM ratio (pull-down/input)
GATGATTGTTCTCCCAGCTGATGAATTCGCGGCCTCGAGTAAACAAATTTTCCTAATCTTTCTGTTCAAGCGCCATCTAC	0.811 RPM ratio (pull-down/input)
GATGATTGTTCTCCCAGCTGATGAATTCCATCCTTCGAGTAAACAAATTTTCCTAATCTTTCTGTTCAAGCGCCATCTAC	0.855 RPM ratio (pull-down/input)
GATGATTGTTCTCCCAGCTGATGAATTGCAGAGTTCGAGTAAACAAATTTTCCTAATCTTTCTGTTCAAGCGCCATCTAC	1.09 RPM ratio (pull-down/input)
GATGATTGTTCTCCCAGCTGATGAATTGTTGTGTTCGAGTAAACAAATTTTCCTAATCTTTCTGTTCAAGCGCCATCTAC	2.57 RPM ratio (pull-down/input)
GATGATTGTTCTCCCAGCTGATGAATTAGGGTCATCGAGTAAACAAATTTTCCTAATCTTTCTGTTCAAGCGCCATCTAC	0.943 RPM ratio (pull-down/input)
GATGATTGTTCTCCCAGCTGATGAATTACCCGAGTCGAGTAAACAAATTTTCCTAATCTTTCTGTTCAAGCGCCATCTAC	0.854 RPM ratio (pull-down/input)
GATGATTGTTCTCCCAGCTGATGAATTCCTGGTCTCGAGTAAACAAATTTTCCTAATCTTTCTGTTCAAGCGCCATCTAC	0.755 RPM ratio (pull-down/input)
GATGATTGTTCTCCCAGCTGATGAATTATTACATTCGAGTAAACAAATTTTCCTAATCTTTCTGTTCAAGCGCCATCTAC	1.28 RPM ratio (pull-down/input)
GATGATTGTTCTCCCAGCTGATGAATTTCACGAGTCGAGTAAACAAATTTTCCTAATCTTTCTGTTCAAGCGCCATCTAC	0.803 RPM ratio (pull-down/input)
GATGATTGTTCTCCCAGCTGATGAATTGTTTTAGTCGAGTAAACAAATTTTCCTAATCTTTCTGTTCAAGCGCCATCTAC	1.44 RPM ratio (pull-down/input)
GATGATTGTTCTCCCAGCTGATGAATTAAGCCGGTCGAGTAAACAAATTTTCCTAATCTTTCTGTTCAAGCGCCATCTAC	0.799 RPM ratio (pull-down/input)
GATGATTGTTCTCCCAGCTGATGAATTAGCCGCCTCGAGTAAACAAATTTTCCTAATCTTTCTGTTCAAGCGCCATCTAC	0.874 RPM ratio (pull-down/input)
GATGATTGTTCTCCCAGCTGATGAATTACAGACTTCGAGTAAACAAATTTTCCTAATCTTTCTGTTCAAGCGCCATCTAC	0.973 RPM ratio (pull-down/input)
GATGATTGTTCTCCCAGCTGATGAATTTGACAGGTCGAGTAAACAAATTTTCCTAATCTTTCTGTTCAAGCGCCATCTAC	0.728 RPM ratio (pull-down/input)
GATGATTGTTCTCCCAGCTGATGAATTTGCATGATCGAGTAAACAAATTTTCCTAATCTTTCTGTTCAAGCGCCATCTAC	1.05 RPM ratio (pull-down/input)
GATGATTGTTCTCCCAGCTGATGAATTACCTGGCTCGAGTAAACAAATTTTCCTAATCTTTCTGTTCAAGCGCCATCTAC	0.828 RPM ratio (pull-down/input)
GATGATTGTTCTCCCAGCTGATGAATTGGGCGGGTCGAGTAAACAAATTTTCCTAATCTTTCTGTTCAAGCGCCATCTAC	0.785 RPM ratio (pull-down/input)
GATGATTGTTCTCCCAGCTGATGAATTCGATCGGTCGAGTAAACAAATTTTCCTAATCTTTCTGTTCAAGCGCCATCTAC	0.785 RPM ratio (pull-down/input)

Sequence	binding signal
GATGATTGTTCTCCCAGCTGATGAATTGTGTTAATCGAGTAAACAAATTTTCCTAATCTTTCTGTTCAAGCGCCATCTAC	1.27 RPM ratio (pull-down/input)
GATGATTGTTCTCCCAGCTGATGAATTGTAATCATCGAGTAAACAAATTTTCCTAATCTTTCTGTTCAAGCGCCATCTAC	1.69 RPM ratio (pull-down/input)
GATGATTGTTCTCCCAGCTGATGAATTTTTCATTTCGAGTAAACAAATTTTCCTAATCTTTCTGTTCAAGCGCCATCTAC	0.989 RPM ratio (pull-down/input)
GATGATTGTTCTCCCAGCTGATGAATTCTGAGCGTCGAGTAAACAAATTTTCCTAATCTTTCTGTTCAAGCGCCATCTAC	0.83 RPM ratio (pull-down/input)
GATGATTGTTCTCCCAGCTGATGAATTCACAGAATCGAGTAAACAAATTTTCCTAATCTTTCTGTTCAAGCGCCATCTAC	0.984 RPM ratio (pull-down/input)
GATGATTGTTCTCCCAGCTGATGAATTCAGCCAATCGAGTAAACAAATTTTCCTAATCTTTCTGTTCAAGCGCCATCTAC	0.903 RPM ratio (pull-down/input)
GATGATTGTTCTCCCAGCTGATGAATTTCGCAGTTCGAGTAAACAAATTTTCCTAATCTTTCTGTTCAAGCGCCATCTAC	0.847 RPM ratio (pull-down/input)
GATGATTGTTCTCCCAGCTGATGAATTATGGGCCTCGAGTAAACAAATTTTCCTAATCTTTCTGTTCAAGCGCCATCTAC	0.904 RPM ratio (pull-down/input)
GATGATTGTTCTCCCAGCTGATGAATTCTCACCTTCGAGTAAACAAATTTTCCTAATCTTTCTGTTCAAGCGCCATCTAC	0.868 RPM ratio (pull-down/input)
GATGATTGTTCTCCCAGCTGATGAATTACTTTAGTCGAGTAAACAAATTTTCCTAATCTTTCTGTTCAAGCGCCATCTAC	0.998 RPM ratio (pull-down/input)
GATGATTGTTCTCCCAGCTGATGAATTGGGTAGGTCGAGTAAACAAATTTTCCTAATCTTTCTGTTCAAGCGCCATCTAC	0.774 RPM ratio (pull-down/input)
GATGATTGTTCTCCCAGCTGATGAATTGAACGGCTCGAGTAAACAAATTTTCCTAATCTTTCTGTTCAAGCGCCATCTAC	0.829 RPM ratio (pull-down/input)
GATGATTGTTCTCCCAGCTGATGAATTTAACCGATCGAGTAAACAAATTTTCCTAATCTTTCTGTTCAAGCGCCATCTAC	0.833 RPM ratio (pull-down/input)
GATGATTGTTCTCCCAGCTGATGAATTTGAGCAATCGAGTAAACAAATTTTCCTAATCTTTCTGTTCAAGCGCCATCTAC	1.08 RPM ratio (pull-down/input)
GATGATTGTTCTCCCAGCTGATGAATTACTTAATTCGAGTAAACAAATTTTCCTAATCTTTCTGTTCAAGCGCCATCTAC	1.28 RPM ratio (pull-down/input)
GATGATTGTTCTCCCAGCTGATGAATTTACAGTTTCGAGTAAACAAATTTTCCTAATCTTTCTGTTCAAGCGCCATCTAC	1.31 RPM ratio (pull-down/input)
GATGATTGTTCTCCCAGCTGATGAATTAGCGAGCTCGAGTAAACAAATTTTCCTAATCTTTCTGTTCAAGCGCCATCTAC	0.774 RPM ratio (pull-down/input)
GATGATTGTTCTCCCAGCTGATGAATTTTGATAGTCGAGTAAACAAATTTTCCTAATCTTTCTGTTCAAGCGCCATCTAC	0.941 RPM ratio (pull-down/input)
GATGATTGTTCTCCCAGCTGATGAATTATTCTAATCGAGTAAACAAATTTTCCTAATCTTTCTGTTCAAGCGCCATCTAC	1.2 RPM ratio (pull-down/input)
GATGATTGTTCTCCCAGCTGATGAATTGTACTGATCGAGTAAACAAATTTTCCTAATCTTTCTGTTCAAGCGCCATCTAC	1.02 RPM ratio (pull-down/input)
GATGATTGTTCTCCCAGCTGATGAATTTCCTGCATCGAGTAAACAAATTTTCCTAATCTTTCTGTTCAAGCGCCATCTAC	1.05 RPM ratio (pull-down/input)
